Some of the results follow. The full chains were built here from the parent and the listed change. Values near 0.05 are background.
B1: TEV protease; numbered along this chain (parent)
chain: MGESLFKGPRDYNPISSSICHLTNESDGHTTSLYGIGFGPFIITNKHLFRRNNGTLVVQSLHGVFKVKDTTTLQQHLVDGRDMIIIRMPKDFPPFPQKLKFREPQREERICLVTTNFQTKSMSSMVSDTSCTFPSGDGIFWKHWIQTKDGQCGSPLVSTRDGFIVGIHSASNFTNTNNYFTSVPKNFMELLTNQEAQQWVSGWRLNADSVLWGGHKVFMVKPEEPFQPVKEATQL

Variants of: B1
Test: raw area under fraction-flipped curve 0-4 h after induction (AUC4h, not background-subtracted), DNA-recorder readout of cleavage of the substrate (dimensionless); higher = more cleavage of the substrate by the protease variant
Settings: temperature: 34 °C; time window: 0-4 h after rhamnose induction
Experimental: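 In vivo DNA recorder in E. coli TOP10(DE3) ΔrhaA at 34 °C. Each TEVp single-site mutant (parent TEVp 0) is paired with a single-site variant of the 7-mer TEVs (canonical ENLYFQ|S). The substrate sits between flexible linkers in a Bxb1-sfGFP-TEVs-SsrA fusion, so cleavage stabilises Bxb1 and speeds flipping of a recombination array, read by NGS. The value is the raw area under the fraction-flipped curve over 0-4 h after rhamnose induction (AUC4h), with ≥20 reads per time point. It is not background-subtracted; inactive controls average about 0.047.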
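Further: Bxb1 expression induced with 0.2% (w/v) L-rhamnose at OD600 near 0.5, cultures sampled hourly, flipped fraction per protease–substrate barcode pair counted by paired-end Illumina sequencing.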

Row | Variant | area with substrate ENLYFQC | area with substrate ENLYFQE | area with substrate ENLYFQG | area with substrate ENLYFQH | area with substrate ENLYFQK | area with substrate ENLYFQM | area with substrate ENLYFQN | area with substrate ENLYFQR | area with substrate ENLYFQS | area with substrate ENLYFQT | area with substrate ENLYFQY | area with substrate ENLYFQD | area with substrate ENLYFQL | area with substrate ENLYFQQ | area with substrate ENLYFQF | area with substrate ENLYFQW | area with substrate ENLYFQV | area with substrate ENLYFQP | area with substrate ENLYFQI
1 | F180Y | 0.144 | 0.103 | 0.109 | 0.0909 | 0.0754 | 0.107 | 0.0699 | 0.0381 | 0.0994 | 0.069 | 0.0818 | – | – | – | – | – | – | – | –
2 | Q197L | 0.125 | – | 0.108 | – | 0.0691 | 0.0894 | 0.0984 | 0.0617 | 0.105 | 0.0825 | – | 0.0803 | 0.0534 | 0.0848 | – | – | – | – | –
3 | Q197H | 0.116 | – | – | – | 0.0869 | 0.0769 | 0.0734 | 0.0597 | 0.0941 | – | – | 0.0674 | 0.0487 | – | 0.0672 | – | – | – | –
4 | V165Q | 0.0494 | – | – | – | 0.0353 | 0.047 | 0.058 | 0.0506 | 0.0535 | – | 0.0466 | 0.0471 | 0.0412 | – | – | 0.0531 | – | – | –
5 | F95P | 0.0575 | 0.0783 | 0.0513 | – | – | 0.0486 | – | 0.048 | 0.0577 | – | 0.0998 | – | 0.0437 | – | 0.0515 | 0.0466 | 0.0331 | – | –
6 | P134F | 0.0606 | – | 0.073 | – | 0.0573 | 0.0641 | 0.0319 | 0.054 | 0.0679 | 0.0691 | 0.0647 | 0.0612 | – | – | – | – | 0.062 | – | –
7 | L190I | 0.122 | – | – | – | – | 0.0745 | – | 0.0442 | 0.112 | 0.0673 | – | – | – | – | 0.09 | – | 0.0574 | 0.0654 | –
8 | Q151V | 0.0807 | – | – | – | – | 0.082 | – | 0.0628 | 0.0935 | 0.0636 | 0.0464 | – | 0.06 | – | 0.0644 | 0.0793 | – | – | 0.0692
9 | Q151K | 0.0649 | – | – | 0.0734 | – | 0.0755 | – | – | 0.0863 | 0.057 | – | – | 0.0784 | – | – | – | – | – | 0.066
10 | N116G | 0.088 | – | 0.0967 | – | – | – | 0.0876 | 0.0498 | 0.0996 | 0.0562 | – | – | 0.0605 | – | – | – | – | 0.1 | –
11 | N206D | 0.126 | 0.0619 | – | – | 0.0769 | 0.128 | 0.0846 | 0.0617 | 0.121 | 0.0571 | 0.108 | 0.0868 | 0.0631 | – | – | 0.0852 | 0.06 | – | 0.0667
12 | N206Q | 0.144 | – | – | 0.0762 | – | – | 0.086 | – | 0.097 | – | – | 0.0699 | – | – | – | – | – | – | 0.0463
13 | N206V | 0.0639 | – | – | – | 0.0569 | 0.0634 | 0.0714 | 0.0603 | 0.0842 | – | – | 0.0851 | 0.0526 | – | – | 0.0239 | 0.0636 | 0.0664 | 0.0619
14 | I145A | 0.172 | – | – | – | 0.0455 | – | 0.0879 | 0.0671 | 0.118 | 0.0725 | – | – | 0.051 | – | 0.0755 | – | – | – | –
15 | I145S | 0.132 | 0.0472 | 0.0966 | 0.104 | – | – | 0.0815 | – | 0.129 | 0.0816 | 0.0871 | 0.0717 | – | – | 0.119 | – | 0.0597 | – | –
16 | W144E | 0.0951 | – | – | 0.0321 | – | 0.0726 | 0.0688 | 0.0566 | 0.08 | 0.0789 | 0.091 | – | 0.0687 | – | – | 0.0565 | 0.058 | 0.0791 | –
17 | S158C | 0.108 | – | – | 0.0667 | 0.0511 | 0.0848 | 0.0757 | – | 0.0946 | – | – | – | 0.0585 | – | 0.0819 | 0.0614 | – | – | 0.0563

Row | Variant | area with substrate ENLYFQC | area with substrate ENLYFQE | area with substrate ENLYFQG | area with substrate ENLYFQH | area with substrate ENLYFQK | area with substrate ENLYFQM | area with substrate ENLYFQN | area with substrate ENLYFQR | area with substrate ENLYFQS | area with substrate ENLYFQT | area with substrate ENLYFQY | area with substrate ENLYFQD | area with substrate ENLYFQL | area with substrate ENLYFQQ | area with substrate ENLYFQF | area with substrate ENLYFQW | area with substrate ENLYFQV | area with substrate ENLYFQP | area with substrate ENLYFQI
18 | S130T | 0.144 | – | – | – | 0.0507 | 0.102 | – | 0.0704 | 0.111 | – | – | – | 0.0594 | – | – | – | – | – | –
19 | S130F | 0.0985 | – | 0.0557 | – | – | 0.0853 | 0.0912 | 0.062 | 0.0844 | – | – | – | – | 0.0863 | 0.0484 | – | – | – | 0.0612
20 | Q146E | 0.119 | 0.0739 | 0.0928 | – | – | 0.0815 | 0.0755 | 0.0591 | 0.0966 | 0.0675 | – | 0.0737 | 0.0703 | 0.0978 | – | 0.0482 | – | 0.0657 | –
21 | E189Q | 0.103 | – | 0.0806 | – | 0.0825 | 0.0925 | – | 0.0702 | 0.0978 | 0.0702 | – | – | 0.0706 | 0.114 | 0.088 | 0.0661 | 0.0513 | 0.0527 | –
22 | S135T | 0.0918 | – | 0.0778 | 0.0571 | 0.0555 | – | 0.0653 | 0.0737 | 0.0885 | 0.0545 | 0.0633 | – | 0.0593 | 0.0618 | – | 0.0589 | – | 0.0725 | –
23 | S135M | 0.0825 | – | 0.0666 | – | 0.0659 | 0.0512 | 0.0585 | 0.0626 | 0.077 | 0.0591 | 0.0465 | 0.0419 | 0.067 | – | – | – | 0.0588 | 0.0355 | 0.051
24 | S135E | 0.0687 | – | 0.0783 | – | 0.0612 | – | 0.0643 | 0.0701 | 0.0788 | 0.0721 | – | 0.068 | 0.0507 | – | – | – | – | – | 0.0561
25 | W199K | 0.0676 | – | – | – | – | – | – | 0.0561 | 0.072 | – | 0.0752 | – | 0.06 | – | – | – | – | – | 0.0642
26 | A170N | 0.0702 | – | – | 0.0647 | – | – | – | – | 0.059 | 0.065 | – | – | – | – | – | 0.05 | 0.0322 | – | –
27 | H143S | 0.085 | – | 0.138 | 0.0806 | 0.0648 | – | 0.0904 | – | 0.0921 | 0.0629 | 0.0519 | 0.0595 | 0.0405 | – | – | 0.0507 | 0.055 | 0.0593 | 0.0327
28 | T115H | 0.101 | – | – | – | – | 0.0849 | – | – | 0.101 | – | – | 0.0532 | – | – | – | 0.0675 | 0.0458 | 0.06 | 0.0663
29 | T115I | 0.112 | – | – | 0.0783 | – | 0.111 | – | 0.0641 | 0.0983 | 0.0641 | 0.0837 | 0.0732 | 0.0549 | – | – | – | – | 0.0662 | 0.0557
30 | D137M | 0.162 | – | 0.0726 | – | 0.0658 | 0.0759 | 0.0661 | 0.055 | 0.102 | 0.0673 | 0.0655 | 0.0706 | 0.0485 | – | – | 0.0688 | – | – | 0.0522
31 | L99T | 0.0763 | 0.0699 | – | 0.0789 | 0.0587 | 0.0953 | 0.136 | 0.0656 | 0.109 | 0.0424 | – | – | – | 0.0491 | – | 0.0522 | – | – | –
32 | S171R | 0.105 | – | 0.0467 | – | – | 0.0619 | – | – | 0.0926 | – | – | – | – | – | – | 0.043 | – | 0.077 | 0.0431
33 | K100P | 0.121 | – | – | – | – | 0.0927 | 0.0879 | – | 0.104 | 0.0557 | – | 0.0753 | – | – | 0.0706 | 0.0516 | – | – | –
34 | R102L | 0.0265 | 0.0447 | – | – | 0.0136 | 0.0548 | 0.0405 | 0.0498 | 0.0512 | 0.0486 | 0.0712 | 0.0404 | 0.0449 | – | – | – | – | 0.0512 | –

— the supplement of paper PMC12217912
